Results taken from PubChem BioAssay AID1159614 (National Center for Advancing Translational Sciences (NCATS), 2016).
Out of some 45,000 compounds screened, about 65 (0.1%) were called active. The call rests on the fitted dose curve; in most records, active means well fitted activation curve with a large enough effect; inconclusive means small, poorly fitted or top-dose-only effect; inactive means no such curve, though single readings can be large or run the other way. This is one part of the list.

Target: Galactocerebrosidase (Homo sapiens) (UniProt P54803)
UniProt P54803, sequence (P54803 whole entry, looked up): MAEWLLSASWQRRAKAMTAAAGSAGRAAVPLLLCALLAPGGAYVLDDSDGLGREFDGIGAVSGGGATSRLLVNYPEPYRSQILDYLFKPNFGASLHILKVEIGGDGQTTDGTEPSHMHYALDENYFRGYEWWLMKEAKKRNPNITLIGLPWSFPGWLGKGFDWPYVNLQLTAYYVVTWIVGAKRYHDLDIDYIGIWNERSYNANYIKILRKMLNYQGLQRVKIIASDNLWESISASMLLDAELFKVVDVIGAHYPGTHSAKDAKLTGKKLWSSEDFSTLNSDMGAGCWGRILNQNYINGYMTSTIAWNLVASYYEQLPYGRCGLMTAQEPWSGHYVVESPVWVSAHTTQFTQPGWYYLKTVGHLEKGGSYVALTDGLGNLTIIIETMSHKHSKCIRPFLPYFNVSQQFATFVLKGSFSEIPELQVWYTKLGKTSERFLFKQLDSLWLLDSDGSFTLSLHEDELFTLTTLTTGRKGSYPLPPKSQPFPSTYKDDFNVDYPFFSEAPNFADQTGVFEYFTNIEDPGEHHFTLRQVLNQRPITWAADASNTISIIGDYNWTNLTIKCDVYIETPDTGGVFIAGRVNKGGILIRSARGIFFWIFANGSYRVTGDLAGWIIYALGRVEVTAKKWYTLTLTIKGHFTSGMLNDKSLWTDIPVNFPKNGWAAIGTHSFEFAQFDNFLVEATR
Experiment: A Novel Cell-Based Assay to Identify Small Molecules for B -Galactocerebrosidase; further: 0% is about no effect; nearly all actives have a fitted effect of over 65% in size
Settings: 145M-Twi-hGALC-G270D cells (Twitcher mouse brain line with human GALC G270D), HMU-beta-Gal fluorescence, 48 h; series mostly up to 57.5 µM; activation: at the top concentration
Procedure, shortened: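 Mutant human GALC (G270D), stably expressed in a Twitcher mouse brain cell line lacking endogenous GALC, is measured in live-treated cells via 6-hexadecanoylamino-4-methylumbelliferyl-β-galactoside hydrolysis (0.1 mM final, pH 5.2) with fluorescent detection.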

activation, inactive:
CCCCOc1ccc(CNC(=O)Cc2ccc(NC(=O)N3CCCCc4ccccc43)cc2)cc1 -0.939%
COc1ccc(-c2nc(SCC(=O)N3CCN(c4ccc(F)cc4)CC3)n[nH]2)cc1 12.4%
CC(=O)N1CCC2(CC1)OC(=O)C(C)=C2C(=O)Nc1cc(C)ccc1C -11.8%
COC(=O)c1sc2cccc(F)c2c1S(=O)(=O)Nc1ccc(N(C)C)cc1 -3.04%
Cc1cc(Br)ccc1NC(=O)Cn1cnc2sc(C)c(S(=O)(=O)N3CCN(C)CC3)c2c1=O -5.47%
CCCN(C(=O)c1cc2ccc3cccnc3c2[nH]1)c1ccc(F)cc1 -5.69%
O=C(c1ccccc1Cl)N(Cc1ccco1)c1ccccn1 -9.01%
COc1ccc(Br)c2c1-c1nc(NC(=O)c3ccccc3F)sc1C2 3.56%
CCCC(=O)Nc1ccc(O)c(C(C)=O)c1 -9.85%
COC(=O)c1ccccc1NC(=O)c1ccc(COc2cc(C)cc(C)c2)o1 -28.4%
COc1ccc(CCCc2nnc(SCC(=O)Nc3cc(C)ccc3C)o2)cc1 -22.5%
CCc1ccc(-c2[nH]nc3nc(-c4ccc(OC)cc4)cc(C(=O)NCCCOC)c23)cc1 -22.2%
COc1ccc(Cl)cc1NC(=O)Cn1c(=O)n(Cc2cccs2)c(=O)c2cccnc21 -14.6%
COc1ccc(CNC(=O)Cc2c(C)c3c(cc(C)c4c(C)coc43)oc2=O)cc1OC -8.2%
CCOC(=O)c1cc(-c2ccc(C)cc2)n(CC(=O)Nc2ccccc2F)c1C -9.82%
CCOc1ccc(NC(=O)CCn2c(=O)c3cccn3c3cccnc32)cc1 -7.89%
Cc1nn(CC(=O)NCc2ccc(N(C)C)cc2)c(=O)c2c(C)n(-c3ccc(Cl)cc3)nc12 0.431%
Cc1nc2ccc(S(=O)(=O)N(CC(=O)Nc3cccc(Cl)c3)Cc3ccccc3)cc2s1 -0.971%
CCCN(CCC)C(=O)Cn1c(=O)n(-c2ccc(C)c(C)c2)c(=O)c2c3c(sc21)CCCCC3 -7.57%
Cc1cc(NC(=O)c2cc(-c3cccc(Cl)c3)on2)nn1Cc1ccc(Cl)cc1 -27.4%
CC1CCC(NC(=O)CCc2cn(Cc3ccccc3Cl)c3ccccc23)CC1 (stereo unspecified) 1.4%
Cc1cc2nn(-c3ccccc3)nc2cc1NC(=O)COc1ccc(Cl)cc1 -3.43%
Cc1nn(-c2ccc(F)cc2)c(-n2cccc2)c1C(=O)N1CCN(c2ccccc2)CC1 -39.3%
CCOc1ccc(Cn2nnc(C(=O)Nc3cccc(SC)c3)c2N)cc1 6.19%
Cc1ccc(NC(=O)CSc2nnc(-c3cc4occc4n3C)n2-c2ccccc2C)c(Cl)c1 -15.9%
COc1ccc(NC(=O)CSC2=Nc3ccccc3C3=NC(CCC(=O)NCc4cccs4)C(=O)N23)cc1 (stereo unspecified) -16.6%
O=C(NCCc1ccccc1)C1CCN(c2ncnc3c2nc2n3CCCCC2)CC1 -14.1%
Cc1ccc(C)c(Cn2c3ccccc3c3cnn(CC(=O)NC4CCC(C)CC4)c(=O)c32)c1 (stereo unspecified) -2.07%
Cc1ncc(CO)c2c1Oc1nc(-c3ccc(F)cc3)nc(SCC(=O)N3CCCCC3)c1C2 -8.62%
Cc1ccc(CN2C(=O)N(c3ccc(F)cc3)C(=O)C2CC(=O)Nc2ccc(Cl)cc2)cc1 (stereo unspecified) -13.1%
COc1cc(/C=C/c2nc(C#N)c(N3CCCCC3)o2)cc(OC)c1OC -18.9%
CCOc1ccc(-c2nonc2NC(=O)c2ccco2)cc1 -33.8%
CC1=C(C(=O)NCc2cccc(Br)c2)C2(CCCCC2)OC1=O -6.21%
CCCCOC(=O)/C(C#N)=C/c1ccc(-c2cccc(C(F)(F)F)c2)o1 -12.4%
CCOc1ccc(NC(=O)CSc2nc3c(oc4ccccc43)c(=O)n2-c2cc(C)cc(C)c2)cc1 -3.27%
Cc1nnc(N2CCC(C(=O)Nc3ccc(F)cc3)CC2)c2nn(-c3ccc(Cl)cc3)c(C)c12 -9.78%
Cc1ccc(C(=O)Nc2c(-c3ccccc3)nc3ccccn23)cc1 -9.2%
Cc1ccc(C2c3[nH]c4ccccc4c3CCN2C(=O)c2ccccc2Br)cc1 (stereo unspecified) -4.06%
CCN(Cc1ccccc1)C(=O)Cn1cc(S(=O)(=O)Cc2cccc(Cl)c2)c2ccccc21 1.71%
Cc1ccc(O)c(NC(=O)c2ccc(Br)c(S(=O)(=O)N3CCCCC3)c2)c1 -21.3%
Cc1cc2c(cc1C)NC(CC(=O)Nc1ccccc1)C(=O)N2 (stereo unspecified) 0.411%
Cc1ccccc1CSc1nc2cc(C(=O)NC3CCCC3)ccc2c(=O)n1Cc1ccccc1 -14.6%
COC(=O)CC1Oc2ccccc2-n2cc(-c3ccccc3)nc21 (stereo unspecified) -4.8%
Cc1ccc(-n2nc(CO)c(C(=O)NC(C)CCCc3ccccc3)n2)cc1C (stereo unspecified) -3.58%
CC1CCN(C(=O)CSc2c(C(C)C)cnc3c2c(=O)n(C)c(=O)n3C)CC1 8.98%
CCCSc1ccc2nc(NC(=O)OC)[nH]c2c1 -16.3%
O=C(CCCn1c(=O)c2cccn2c2ccc(F)cc21)NCc1ccc(Cl)cc1 -6.96%
CCc1ccc(NC(=O)C(=O)NCC(c2cccnc2)N2CCN(Cc3ccccc3)CC2)cc1 (stereo unspecified) -25.1%
CCC(=O)Nc1ccc2nc(SCCOc3ccccc3)sc2c1 -0.49%
CC(=O)Nc1nonc1-c1nnc(SCC(=O)Nc2ccccc2)n1-c1ccccc1 -12.9%
CCCCOc1ccc(CNC(=O)c2ccc(NC(=O)N3CCCCc4ccccc43)cc2)cc1 -6.05%
CCOc1ccc(CNS(=O)(=O)c2ccc3[nH]c(=O)ccc3c2)cc1 -2.61%
CCn1c(C)c(C)c2cc(C(=O)NCCCN3CCCCC3)ccc21 8.95%
COc1ccccc1OC(C)C(=O)Nc1c(C(=O)c2ccc(Cl)cc2)oc2ccccc12 (stereo unspecified) -0.0281%
Cc1ccc(C)c(N2CCN(Cc3nnc(-c4ccc5c(c4)OCO5)o3)CC2)c1 -23.7%
Cn1c(=O)oc2cc(S(=O)(=O)NC(Cc3ccccc3)C(=O)NCc3ccc(F)cc3)ccc21 (stereo unspecified) -12.5%
CCC(=O)N1c2ccccc2CC1C(=O)NCCN1CCN(c2cccc(C(F)(F)F)c2)CC1 (stereo unspecified) -12.5%
CCOC(=O)Cn1c(=O)n(CC2CCCO2)c2nc(-c3cccc(C)c3)nc(C(N)=O)c21 (stereo unspecified) -0.84%
COC(=O)c1ccc(-n2c(CCC(=O)O)ccc2-c2ccc(C)cc2)cc1 -7.57%
Cc1c(Cl)cccc1NC(=O)c1noc2c1CCCC2 -12.9%
CNS(=O)(=O)c1cn(CC(=O)Nc2cccc(OC)c2)cc1S(=O)(=O)NC -11.8%
CCOc1ccccc1NC(=O)CCc1c(C)nn(-c2ccc(N3CCOCC3)nn2)c1C 5.28%
Cc1ccc(NC(=O)CSc2ncn[nH]2)cc1C -13.8%
CCCCSCCCNC(=O)c1cn(C)c2ccc(S(=O)(=O)N3CCCCC3)cc2c1=O 6.01%
COc1ccc(-n2nc(C(=O)Nc3ccc(C)cn3)c3c4ccccc4n(C)c3c2=O)cc1 -10.5%
Cc1ccc(-n2cc(-c3ccccc3)nc2S(=O)(=O)CC(=O)Nc2ccc(F)cc2)cc1 5.56%
Cc1ccc(N(CC(=O)NCc2ccc(F)cc2)S(=O)(=O)c2c(C)nn(C)c2C)cc1 -12.9%
COc1cccc(CNC(=O)c2ccc3c(c2)nnn3C2CCCC2)c1 -4.53%
Cc1ccc(C)c(N2CCN(C(=O)C3CCCN(S(=O)(=O)c4cccc5nsnc45)C3)CC2)c1 (stereo unspecified) 0.477%
O=C(CNC(=O)c1ccccc1F)OCc1cc(=O)n2ccsc2n1 -15.9%
COc1ccccc1C(=O)Nc1nnc(SCc2cc(=O)c3cc(Cl)ccc3[nH]2)s1 16.6%
COc1ccc(OC)c(NC(=O)Cn2ccc3ccccc3c2=O)c1 -13.5%
COc1ccc(NC(=O)c2c(-c3ccc(C)cc3)nnc3ccccc23)cc1Cl 1.16%
CCN(CC)C(=O)Cn1c(=O)n(-c2ccc(OC)cc2OC)c(=O)c2c(C)c(C(=O)N(CC)CC)sc21 -16.3%
Cc1nc(-c2ccc(Cl)cc2)sc1CCNC(=O)Cc1ccc(F)cc1 7.29%
COc1ccc(C)cc1NC(=O)Cn1c(=O)cc(C)c2c(C)nn(C)c21 -3.62%
O=S(=O)(c1ccccc1)c1nc(-c2ccc(Cl)cc2Cl)oc1N1CCCCC1 4.02%
CCN(CC)CCCNC(=O)c1cn(CC)c2ccc(S(=O)(=O)N3CCc4ccccc4C3)cc2c1=O -13.1%
Cc1ccc(C(=O)Nc2cccc(O)c2)cc1S(=O)(=O)N1CCCCCC1 25%
CCCN(CCC)C(=O)Cn1c(=O)n(-c2ccccc2)c(=O)c2c3c(sc21)CCCC3 -14%
N#C/C(=C/c1ccc(Cl)cc1)c1nc(-c2ccc(Br)cc2)cs1 -10.5%
O=S(=O)(NCc1nc2cccnc2n1Cc1ccccc1)c1ccc2c(c1)CCCC2 18.5%
CCc1ccc(-n2c(=O)c3c(C)c(C)sc3n(CC(=O)NCc3ccc(C)cc3)c2=O)cc1 -13%
CCOC(=O)c1ccc(NC(=O)/C(C#N)=C/c2ccc(OC)cc2)cc1 -20.8%
CCCCc1nn2c(=O)cc(COC(=O)c3cccc(NC(=O)CCc4ccccc4)c3)nc2s1 -5.15%
Cc1ccc(CSc2oc(-c3ccco3)nc2S(=O)(=O)c2ccc(C)cc2)cc1 -12.3%
COc1cc(/C=C(\C#N)c2nc3ccccc3[nH]2)cc(Cl)c1OCc1ccccc1Cl -17.4%
COc1cc2nc(SCC(=O)Nc3c(C)cc(C)cc3C)n3nc(CCn4c(C)nc5ccccc54)nc3c2cc1OC 6.2%
Cc1ccc(NS(=O)(=O)c2ccc3[nH]c(=O)oc3c2)c(C)c1 -8.65%
O=C(CCC1N=C2c3ccccc3N=C(SCc3ccc(Cl)cc3)N2C1=O)NCCc1ccccc1 (stereo unspecified) -6.6%
CCc1cccc(C)c1NC(=O)c1cc(S(=O)(=O)NCc2ccccc2Cl)ccc1F 10.9%
CC(=O)NCC(c1ccc2c(c1)OCO2)N1CCN(c2ccccc2)CC1 (stereo unspecified) -11.4%
CCCn1c2ccccc2c2cnn(CC(=O)N(C)c3ccccc3CC)c(=O)c21 0.489%
CCOC(=O)c1c(S(=O)(=O)NCC(=O)N2CCN(c3ccccc3)CC2)c(C)n(C)c1C -1.42%
Fc1ccc(C(NCCc2ccc(Cl)cc2)c2nnc(-c3ccccc3)o2)c(Cl)c1 (stereo unspecified) -11.1%
COc1ccccc1CNC(=O)CCn1c(=O)c2ccccc2n(CC(=O)Nc2ccc(C)cc2Cl)c1=O 18.8%
